From ChEMBL document CHEMBL1201862, “PubChem BioAssay data set” (2004) come the findings set out here.

Each structure is given as a SMILES string.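 Values below derive from 48-hour exposures of cells grown in 96-well plates, with endpoints linearly interpolated between the two concentrations bracketing the appropriate inhibition level. Here, GI50 denotes the concentration required for 50% inhibition of growth.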 The source made the active and inactive calls. Cut-off read from the data, not from the text of the source: active = GI50 up to about 1.1 µM and inactive = higher. A value given as a limit tells only on which side of the number the result lay.

This assay concerns NCI-H322M. As to the kind of experiment: NCI-60 cell line screen, 48 h.
With `CSc1nc2cc(S(=O)(=O)N3CCCCC3)ccc2s1`, the GI50 was inactive: 48.9 µM. Then `Cc1c(Cl)c(S(N)(=O)=O)cc(S(N)(=O)=O)c1NC(=O)c1ccc(Cl)cc1`, with inactive: > 100 µM. On to `C#CCOC(=O)c1ccccc1O`, for which the GI50 is inactive: > 100 µM. Then `O=C1C=CC2(O[C@H](c3ccccc3)[C@@H](c3ccccc3)O2)[C@H](Sc2ccccc2O)C1`, with inactive: 3.85 µM; and `Cc1n(Cc2ccccc2)c2c([n+]1C)C(=O)c1ccccc1C2=O`, with active: 0.361 µM.

As to `CC(SC1=CC(=O)c2c(Cl)ccc(O)c2C1=O)C(=O)O` (centres undefined), the GI50 was inactive: 17.4 µM.

For `Cc1ccc(N/C(Sc2ccccc2)=C(/C(Cl)=C(Cl)Cl)[N+](=O)[O-])c(C)c1`, the GI50 is inactive: 29.9 µM. As for `CC1(c2ccc(F)cc2)C2C(=O)NC(=O)C1C(=O)NC2=O` (centres undefined), the GI50 is inactive: > 100 µM. For the compound `CCCCCCCCCCCC(=O)NCc1ccc(OC(=O)CCCCCCCCCCC)c(OC)c1`, the GI50 was inactive: > 43.3 µM.

On to `CN(C)c1ccc(/C=C(\NC(=O)c2ccccc2)C(=O)NC(Cc2c[nH]c3ccccc23)C(=O)O)cc1` (centres undefined), for which the GI50 was inactive: > 100 µM. On to `C/C(=C/CC[C@](C)(OC1OC(CO)C(O)C(O)C1O)[C@H]1CC[C@]2(C)[C@@H]1CC[C@@H]1[C@@]3(C)CC[C@H](O)C(C)(C)[C@@H]3C[C@H](O)[C@]12C)CO` (some centres undefined), for which the GI50 was inactive: 33.3 µM. Then `O=C(O)C1C2C=CC(C2)C1c1ccccc1` (centres undefined), with inactive: > 100 µM.

With `O=c1c2ccccc2nc(-c2ccccc2)n1NC(=S)Nc1cccc(Cl)c1`, the GI50 is inactive: > 100 µM.

Take `NC(=O)CC(Nc1ncc2c(n1)-c1ccccc1OC2)C(=O)O` (centres undefined): the GI50 is inactive: > 100 µM.

For `COc1ccc(N(C(=O)Nc2ccc(Cl)c(Cl)c2)C2c3cccn3C(=O)N2c2ccc(Cl)c(Cl)c2)cc1` (centres undefined), the GI50 is inactive: > 100 µM. The value for `C/C(=N/NC(N)=S)C(CN1CCOCC1)C(C1=C(O)c2ccccc2OC1)c1ccccc1` (centres undefined) was inactive: > 100 µM. For `O=C1CCC[C@@H]2NC[C@@H](c3ccc4c(c3)OCO4)[C@H]12`, the GI50 was inactive: > 25 µM. For `O=S(=O)(c1ccccc1)c1cccc2c1NCCC2`, the GI50 was inactive: 51.2 µM. Turning to `c1ccc(C2C3=C(CCCC3)Nc3nc4cc5ccccc5cc4n32)cc1` (centres undefined), the GI50 was inactive: > 100 µM. Then `Nc1nc(N)nc(CCCCc2nc(N)nc(N)n2)n1`, with inactive: > 100 µM; and `CCCSc1ccc2[nH]c(N3C(=O)/C(=C/c4ccc(O)c(OC)c4)N=C3c3ccccc3)cc2c1`, with active: 0.0545 µM. The value for `O=[N+]([O-])C(=C(N1CCCCC1)N1CCCCC1)/C(Cl)=C(\Cl)[N+](=O)[O-]` was inactive: 19.4 µM; that for `Cc1c(F)c(N)c2c(=O)cc(-c3ccc(NC(=O)C(N)CCCNC(=N)N)c(F)c3)oc2c1F` (centres undefined) was inactive: 14.2 µM; that for `Nc1nc(Cl)c(N)c(NCC2(CO)CC(CCCc3ccccc3)C2)n1` (centres undefined) was inactive: > 49.3 µM. The value for `O=C(Nc1ccccc1)n1[nH]c(=O)n(-c2ccccc2)c1=O` was inactive: > 100 µM; that for `CCN1C(=O)/C(=C2\SC(c3ccccc3)(c3ccccc3)c3ccccc32)SC1=S` was inactive: > 100 µM; that for `CC(=O)O[C@H]1CC[C@@]2(C)C(=CC[C@H]3[C@@H]4C[C@H](N5CCCC5)[C@H](OC(C)=O)[C@@]4(C)CC[C@@H]32)C1` was inactive: > 100 µM. For `O=C1Nc2ccccc2/C1=N/NC(=S)NCc1ccccn1`, the GI50 is inactive: 1.3 µM.

For the compound `Cc1ccc(S[C@@H](C)[C@@](O)(C(N)=O)c2ccccc2)cc1`, the GI50 was inactive: > 100 µM.

`C=C(C)[C@@]1(O)CCC[C@H]1NC(=O)OC(C)(C)C`: the GI50 was inactive: > 100 µM. Then `COC1(OC)N=C(N)C2(C#N)/C(=N/N(C)C)CC(C)C12C#N` (centres undefined), with inactive: > 100 µM; and `Cc1ccc(S(=O)(=O)NCCCSCCN)cc1`, with inactive: > 100 µM.

For the compound `N#CCC(=O)N/N=C\C(O)C(O)C(O)C(O)CO` (centres undefined), the GI50 is inactive: > 100 µM. For `CCOC(=O)CC(NCc1ccc(/N=C/c2nc3ccc(C(F)(F)F)cc3nc2-c2ccccc2)cc1)C(=O)OCC` (centres undefined), the GI50 is inactive: > 100 µM. Then `COC(=O)[C@]1(CCC(C)=O)C(=O)C=CN([C@H](C)c2ccccc2)[C@@H]1Cc1ccc(OC)c(OCc2ccccc2)c1I`, with inactive: 23.1 µM; and `O=c1[nH]cnc2c1ncn2[C@@H]1C[C@H]1CO`, with inactive: > 100 µM. Then `CS(=O)(=O)Sc1ccc(Cl)cc1`, with inactive: 9.95 µM; and `CC1(C)OC2C(=O)OC(COCc3ccccc3)C2O1` (centres undefined), with inactive: > 100 µM; and `CN/N=C(\C(=O)Nc1ccc(C(F)(F)F)cc1[N+](=O)[O-])C(c1cnc2ccc([N+](=O)[O-])cc2n1)[N+](=O)[O-]` (centres undefined), with inactive: > 100 µM.

On to `Cc1cc(NS(=O)(=O)c2ccc(Nc3c4ccccc4nc4c(C(=O)NCCN(C)C)cccc34)cc2)no1`, for which the GI50 was inactive: 9.48 µM. Then `Cc1ccc(-c2n[nH]c(=O)n2N)cc1`, with inactive: > 100 µM; and `CC[C@@H]1/C=C/C=C/C[C@H](C)[C@@H](O)[C@](C)(O)C(=O)[C@H](C)[C@@H](O)[C@H](C)C(=O)[C@H](C)[C@@H](O)[C@H](C)/C=C/C(=O)O[C@H]2[C@@H](C)[C@@H](CC1)O[C@@]1(CC[C@@H](C)[C@@H](CC(C)O)O1)[C@@H]2C` (some centres undefined), with inactive: 3.73 µM; and `CCNC(=O)Nc1ccccn1`, with inactive: > 100 µM. Take `N#C[C@H](OC1OC(COC2OC(CO)C(O)C(O)C2O)C(O)C(O)C1O)c1ccccc1` (some centres undefined): the GI50 was inactive: > 250 µM. With `[N-]=[N+]=Nc1c(C=O)c(=O)n(-c2ccccc2)c2ccccc12`, the GI50 is inactive: 67.9 µM. Then `CN(C)CCC(=O)N1CCc2c([nH]c3ccccc23)C1c1cccnc1` (centres undefined), with inactive: > 100 µM; and `COC(=O)C1CC23CCCN4CCC5(c6ccccc6N(C=O)C15CC2)C43` (centres undefined), with inactive: > 100 µM.

For `Nc1[nH]c(=O)[nH]c(=O)c1Cc1cccc(Cl)c1`, the GI50 was inactive: 84.5 µM.

Turning to `CCOC(OCC)[C@H](N)[C@@H](O)[C@@H](O)[C@H]1COC(C)(C)O1`, the GI50 was inactive: > 100 µM. The value for `Cc1csc2nc3[nH]ncc3c(=O)n12` was inactive: > 100 µM. For the compound `CCOC(=O)NC(N(C)C(C(C)C)P(=O)(OCC)OCC)(C(F)(F)F)C(F)(F)F` (centres undefined), the GI50 was inactive: > 100 µM.

As to `COC(=O)c1cc(=O)n(-c2ccc3nn(C)nc3c2)cc1C(=O)OC`, the GI50 was inactive: > 100 µM. The value for `Clc1ccc2ns[s+]c2c1` was inactive: > 39.4 µM; that for `C=C1C(=O)O[C@@H]2[C@H](O)[C@@H](C)[C@@H]3C=CC(=O)[C@@]3(C)[C@H](OC(=O)C=C(C)C)[C@H]12` was inactive: 2.86 µM; that for `Clc1cc2nnn(C3CCCCO3)c2cc1Cl` (centres undefined) was inactive: 82.6 µM. As to `O=[N+]([O-])c1ccc2c3c1[C@@H]1O[C@@H]1c1cccc(c1-3)[C@@H]1O[C@H]21`, the GI50 is inactive: 12.5 µM. Regarding `COC(=O)C12OC3CO[Si](C(C)C)(C(C)C)O[Si](C(C)C)(C(C)C)OC3C1Oc1nc(=O)ccn12` (centres undefined), the GI50 was inactive: 16.7 µM.

`Clc1ccc(Cc2nc3ccccc3nc2-c2cccc(Cl)c2)cc1`: the GI50 is inactive: 14.6 µM.

With `CCCCCC(/C=N/N)C(O)(C(F)(F)F)C(F)(F)F` (centres undefined), the GI50 was inactive: 3.1 µM. On to `CCOc1ccccc1NC(=O)CC1C(=O)Nc2ccccc2[S+]1[O-]` (centres undefined), for which the GI50 is inactive: > 100 µM. On to `CCOc1ccc(/N=C/c2c3ccccc3nc3ccccc23)cc1`, for which the GI50 is inactive: 98.9 µM.

On to `CC1=Nc2c(ccc3c2C(=O)c2ccccc2C3=O)NC(c2cccc3c2CCC3)C1` (centres undefined), for which the GI50 was inactive: 18.2 µM. `CNS(=O)(=O)NN(C)S(=O)(=O)c1ccc(OC)cc1`: the GI50 is inactive: > 100 µM. The value for `CC(=O)O[C@H]1CCC2[C@@H]3CCC4Nc5c(cnn5-c5ccccc5)C[C@]4(C)C3CC[C@@]21C` (some centres undefined) was inactive: 22.8 µM. The value for `C=C(CCOC)CCC1CCCCC(CN(C)C)C1=O` (centres undefined) was inactive: > 100 µM; that for `O=C1CSC(c2cccc(Oc3ccccc3)c2)N1c1cc(Cl)ccc1Cl` (centres undefined) was inactive: 39.8 µM; that for `COc1ccc(C2=NC(C)(C)CO2)cc1` was inactive: > 100 µM. The value for `S=c1sc2c(S)nc(S)nc2n1-c1ccccc1` was inactive: > 100 µM; that for `Cc1ccc(/N=C2/SC(c3ccc(C)cc3)(c3ccc(C)cc3)c3ccccc32)cc1` was inactive: > 100 µM. Turning to `Cc1ccc(C(=O)Nc2ccc(S(=O)(=O)O)c3cc(S(=O)(=O)O)cc(S(=O)(=O)O)c23)cc1NC(=O)c1cccc(N)c1`, the GI50 is inactive: > 100 µM. For `OC[C@H]1NC[C@@H](O)[C@@H](O)[C@H]1O`, the GI50 is inactive: > 100 µM.

With `CON(C)C(=O)C(C)NC(=O)OC(C)(C)C` (centres undefined), the GI50 was inactive: > 100 µM. Take `COc1cc([C@@H]2OCC3C(c4ccc5c(c4)OCO5)OCC32)cc(OC)c1OC` (some centres undefined): the GI50 is inactive: > 100 µM. For the compound `C/C(=C\C(C)COCc1ccccc1)[C@H](COCc1ccccc1)OCc1ccccc1` (some centres undefined), the GI50 was inactive: > 100 µM. Then `O=C1CCCCC/C1=C\c1cccc(F)c1`, with inactive: > 100 µM. The value for `C[n+]1c(-c2ccc(/C=N\Nc3ccnc(N/N=C/c4ccc(-c5cn6ccsc6[n+]5C)cc4)n3)cc2)cn2ccsc21` was inactive: 25 µM. For the compound `Cc1cnc2nc(-c3ccc(Cl)cc3)cc(O)c2c1`, the GI50 is inactive: 5.62 µM. As to `CSc1ccc2c(cc1=O)[C@@H](NC(=O)c1cc(O)c(O)c(O)c1)CCc1cc(O)c(O)c(O)c1-2`, the GI50 was inactive: 20 µM. The value for `COC(=O)NCCc1n[nH]c2c1C(=O)C=C(Nc1ccccc1)C2=O` was inactive: 32.1 µM.
